Laboratory results: the supplement of paper PMC8728848
This is one part of the list.

Columns and labels:
Test in all cases: glycan array binding signal (z-score within array); higher = stronger binding
Conditions in all cases: glycan notation: IUPAC condensed, linker removed
[1] = target: Gal(b1-3)[Fuc(a1-4)]GlcNAc(b1-6)GalNAc
Outline: (§1)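 The binding signal is a Z-score computed within each array and averaged over linkers. Arrays of the same protein sequence at different concentrations or buffers were also averaged together. Data originate from 3228 arrays in the Consortium for Functional Glycomics database, kept only where the protein sequence was available.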

[2] = target: Gal(b1-3)[GlcNAc(b1-6)]GalNAc
Outline: as §1

[3] = target: Gal(b1-3)[Neu5Ac(a2-6)]GalNAc
Outline: as §1

[4] = target: Gal(b1-3)[Neu5Ac(a2-6)]GlcNAc(b1-4)Gal(b1-4)Glc
Outline: as §1

[5] = target: Gal(b1-3)[Neu5Ac(b2-6)]GalNAc
Outline: as §1

Gal(b1-4)Gal = target: Gal(b1-4)Gal
Outline: as §1

[6] = target: Gal(b1-4)GalNAc(a1-3)[Fuc(a1-2)]Gal(b1-4)GlcNAc
Outline: as §1

[7] = target: Gal(b1-4)GalNAc(b1-3)[Fuc(a1-2)]Gal(b1-4)GlcNAc
Outline: as §1

Gal(b1-4)Glc = target: Gal(b1-4)Glc
Outline: as §1

Gal(b1-4)Glc6S = target: Gal(b1-4)Glc6S
Outline: as §1

Gal(b1-4)GlcNAc = target: Gal(b1-4)GlcNAc
Outline: as §1

[8] = target: Gal(b1-4)GlcNAc(a1-6)Gal(b1-4)GlcNAc
Outline: as §1

Gal(b1-4)GlcNAc(b1-2)Man = target: Gal(b1-4)GlcNAc(b1-2)Man
Outline: as §1

[9] = target: Gal(b1-4)GlcNAc(b1-2)Man(a1-3)Man(b1-4)GlcNAc(b1-4)GlcNAc
Outline: as §1

[10] = target: Gal(b1-4)GlcNAc(b1-2)Man(a1-3)[Gal(b1-4)GlcNAc(b1-2)Man(a1-6)]Man(b1-4)GlcNAc(b1-4)GlcNAc
Outline: as §1

[11] = target: Gal(b1-4)GlcNAc(b1-2)Man(a1-3)[Gal(b1-4)GlcNAc(b1-2)Man(a1-6)]Man(b1-4)GlcNAc(b1-4)[Fuc(a1-6)]GlcNAc
Outline: as §1

[12] = target: Gal(b1-4)GlcNAc(b1-2)Man(a1-3)[Gal(b1-4)GlcNAc(b1-2)Man(a1-6)][Gal(b1-4)GlcNAc(b1-4)]Man(b1-4)GlcNAc(b1-4)[Fuc(a1-6)]GlcNAc
Outline: as §1

[13] = target: Gal(b1-4)GlcNAc(b1-2)Man(a1-3)[Gal(b1-4)GlcNAc(b1-2)Man(a1-6)][GlcNAc(b1-4)]Man(b1-4)GlcNAc(b1-4)[Fuc(a1-6)]GlcNAc
Outline: as §1

[14] = target: Gal(b1-4)GlcNAc(b1-2)Man(a1-3)[GlcNAc(b1-2)Man(a1-6)]Man(b1-4)GlcNAc(b1-4)GlcNAc
Outline: as §1

[15] = target: Gal(b1-4)GlcNAc(b1-2)Man(a1-3)[GlcNAc(b1-4)][Gal(b1-4)GlcNAc(b1-2)Man(a1-6)]Man(b1-4)GlcNAc(b1-4)GlcNAc
Outline: as §1

[16] = target: Gal(b1-4)GlcNAc(b1-2)Man(a1-3)[Man(a1-6)]Man(b1-4)GlcNAc(b1-4)GlcNAc
Outline: as §1

[17] = target: Gal(b1-4)GlcNAc(b1-2)Man(a1-6)Man(b1-4)GlcNAc(b1-4)GlcNAc
Outline: as §1

[18] = target: Gal(b1-4)GlcNAc(b1-2)Man(a1-6)[GlcNAc(b1-2)Man(a1-3)]Man(b1-4)GlcNAc(b1-4)GlcNAc
Outline: as §1

[19] = target: Gal(b1-4)GlcNAc(b1-2)Man(a1-6)[Man(a1-3)]Man(b1-4)GlcNAc(b1-4)GlcNAc
Outline: as §1

[20] = target: Gal(b1-4)GlcNAc(b1-2)[Gal(b1-4)GlcNAc(b1-4)]Man(a1-3)[Gal(b1-4)GlcNAc(b1-2)Man(a1-6)]Man(b1-4)GlcNAc(b1-4)GlcNAc
Outline: as §1

[21] = target: Gal(b1-4)GlcNAc(b1-2)[Gal(b1-4)GlcNAc(b1-4)]Man(a1-3)[Gal(b1-4)GlcNAc(b1-2)[Gal(b1-4)GlcNAc(b1-6)]Man(a1-6)]Man(b1-4)GlcNAc(b1-4)GlcNAc
Outline: as §1

[22] = target: Gal(b1-4)GlcNAc(b1-2)[Gal(b1-4)GlcNAc(b1-4)]Man(a1-3)[GlcNAc(b1-4)][Gal(b1-4)GlcNAc(b1-2)Man(a1-6)]Man(b1-4)GlcNAc(b1-4)GlcNAc
Outline: as §1

[23] = target: Gal(b1-4)GlcNAc(b1-2)[Gal(b1-4)GlcNAc(b1-4)]Man(a1-3)[GlcNAc(b1-4)][Gal(b1-4)GlcNAc(b1-2)[Gal(b1-4)GlcNAc(b1-6)]Man(a1-6)]Man(b1-4)GlcNAc(b1-4)GlcNAc
Outline: as §1

[24] = target: Gal(b1-4)GlcNAc(b1-2)[Gal(b1-4)GlcNAc(b1-6)]Man(a1-6)[Gal(b1-4)GlcNAc(b1-2)Man(a1-3)]Man(b1-4)GlcNAc(b1-4)GlcNAc
Outline: as §1

[25] = target: Gal(b1-4)GlcNAc(b1-2)[Gal(b1-4)GlcNAc(b1-6)]Man(a1-6)[Gal(b1-4)GlcNAc(b1-2)Man(a1-3)]Man(b1-4)GlcNAc(b1-4)[Fuc(a1-6)]GlcNAc
Outline: as §1

[26] = target: Gal(b1-4)GlcNAc(b1-2)[Gal(b1-4)GlcNAc(b1-6)]Man(a1-6)[GlcNAc(b1-4)][Gal(b1-4)GlcNAc(b1-2)Man(a1-3)]Man(b1-4)GlcNAc(b1-4)GlcNAc
Outline: as §1

[27] = target: Gal(b1-4)GlcNAc(b1-2)[Gal(b1-4)GlcNAc(b1-6)]Man(a1-6)[GlcNAc(b1-4)][Gal(b1-4)GlcNAc(b1-2)[Gal(b1-4)GlcNAc(b1-4)]Man(a1-3)]Man(b1-4)GlcNAc(b1-4)[Fuc(a1-6)]GlcNAc
Outline: as §1

[28] = target: Gal(b1-4)GlcNAc(b1-3)Gal(b1-3)GalNAc
Outline: as §1

[29] = target: Gal(b1-4)GlcNAc(b1-3)Gal(b1-3)GlcNAc
Outline: as §1

[30] = target: Gal(b1-4)GlcNAc(b1-3)Gal(b1-4)Glc
Outline: as §1

[31] = target: Gal(b1-4)GlcNAc(b1-3)Gal(b1-4)GlcNAc
Outline: as §1

[32] = target: Gal(b1-4)GlcNAc(b1-3)Gal(b1-4)GlcNAc(b1-2)Man(a1-3)[Gal(b1-4)GlcNAc(b1-3)Gal(b1-4)GlcNAc(b1-2)Man(a1-6)]Man(b1-4)GlcNAc(b1-4)GlcNAc
Outline: as §1

[33] = target: Gal(b1-4)GlcNAc(b1-3)Gal(b1-4)GlcNAc(b1-2)Man(a1-3)[Gal(b1-4)GlcNAc(b1-3)Gal(b1-4)GlcNAc(b1-2)Man(a1-6)]Man(b1-4)GlcNAc(b1-4)[Fuc(a1-6)]GlcNAc
Outline: as §1

B1: PX14379A-bvu-539-28-539 (Bacteroides vulgatus) (protein)
chain: EPYSEIIEEDYVPTEADEIALLATTYSQLRFVMDWYGLFDLQEESGDVIVTPTRPNGWDDGGTYKQMHKHTWDNQQGQPQSIWDYCYKGIANANKILKRADEGFFTEESKPKVVAEVKGVRALWYSILCDTHGNIPIQTSFSEEVPVQSTRKQVFDFIINELKEVMPNLPTEVNKSTYGRLTQWGAKCLMARMYLNAGVYTGTPMWNECLEQCNDIINSGLFSLETNYTDIFKTENSGCVETIFAIPYDEVYNEGDNNGPVFGAHMKFLSSNSRKVFNMQTTPWGGSAANPQFINSYDPDDMRLKYTWLQGDQYSPDGVLITTFPNKLPSIYKTDTDDGYRVGKYEIKVGAKSLLSNDFPYFRYTEVLLMKAECLLRLGQNETEAAHIVSQIRERAFRESAHPEKATVDAAWLKGDTHINYGTLDEKGQIDDAGNTEVVELGGLYDEWGWEFAAEARRRTDMIRFGTYQKKSWFNHTPTANDLNGNSILFPIHLDHLNTNPNLQQNPGYAGK
glycan array binding signal (z-score) [1]: -0.234 | glycan array binding signal (z-score) [2]: -0.091 | glycan array binding signal (z-score) [3]: -0.369 | glycan array binding signal (z-score) [4]: -0.375 | glycan array binding signal (z-score) [5]: -0.413 | glycan array binding signal (z-score) (Gal(b1-4)Gal): -0.314 | glycan array binding signal (z-score) [6]: -0.278 | glycan array binding signal (z-score) [7]: 0.182 | glycan array binding signal (z-score) (Gal(b1-4)Glc): -0.346 | glycan array binding signal (z-score) (Gal(b1-4)Glc6S): -0.307 | glycan array binding signal (z-score) (Gal(b1-4)GlcNAc): -0.29 | glycan array binding signal (z-score) [8]: -0.203 | glycan array binding signal (z-score) (Gal(b1-4)GlcNAc(b1-2)Man): -0.28 | glycan array binding signal (z-score) [9]: 0.346 | glycan array binding signal (z-score) [10]: -0.194 | glycan array binding signal (z-score) [11]: 1.32 | glycan array binding signal (z-score) [12]: 0.442 | glycan array binding signal (z-score) [13]: -0.502 | glycan array binding signal (z-score) [14]: 3.64 | glycan array binding signal (z-score) [15]: -0.389 | glycan array binding signal (z-score) [16]: 1.39 | glycan array binding signal (z-score) [17]: -0.472 | glycan array binding signal (z-score) [18]: 0.521 | glycan array binding signal (z-score) [19]: 0.24 | glycan array binding signal (z-score) [20]: -0.019 | glycan array binding signal (z-score) [21]: -0.201 | glycan array binding signal (z-score) [22]: -0.391 | glycan array binding signal (z-score) [23]: 0.351 | glycan array binding signal (z-score) [24]: 1.36 | glycan array binding signal (z-score) [25]: -0.043 | glycan array binding signal (z-score) [26]: -0.433 | glycan array binding signal (z-score) [27]: -0.223 | glycan array binding signal (z-score) [28]: -0.333 | glycan array binding signal (z-score) [29]: -0.157 | glycan array binding signal (z-score) [30]: -0.017 | glycan array binding signal (z-score) [31]: -0.301 | glycan array binding signal (z-score) [32]: 1.8 | glycan array binding signal (z-score) [33]: 0.327
